The text below walks through data of the supplement of paper PMC11417369.

This is one part of the list.

This experiment has as its system PfSIP2 AP2 domain 1 (GST-tagged). The experiment can be described thus: gcPBM binding intensity (ln(normalized median fluorescence intensity)); higher = stronger DNA binding. In a few lines: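 Probes on an Agilent 4 × 180k array were primer-extended, double-stranded and 36 bp long, taken from intergenic genomic regions, with negative controls added. GST-tagged P. falciparum DNA-binding domains from E. coli, about 25 μg on average, were applied to the array for 1 h in 1× PBS containing 1% milk, 0.2 mg/ml BSA, 0.5% salmon testes DNA and 0.03% Triton X-100. Binding intensity, obtained after Alexa488 anti-GST antibody detection and a 488 nm scan, is the highest Masliner-normalised natural-log median intensity across replicate spots of either probe orientation.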
“AATATTTATTTTACATGTACTTATTTTTCTTTTAAC [XGTACX_site3631]”: the “gcPBM binding intensity (ln)” value was found to be 7.
The value for “AATATATATTTATATTGTACATATATATATATTTCT [XGTACX_site2603]” was 7.06.
In the case of “CCATTAAATACATACACACCCACACCCAAAAAAAAA [CACACA_site4633]”, the “gcPBM binding intensity (ln)” value was 7.35.
The value for “AAAAAAAAAAATATAACACACAAAAAATTGTATCGA [CACACA_site1144]” was 6.85; that for “ATATAGTAAAATTATACACACATGAATTTTCCCATA [CACACA_site3113]” was 6.96; that for “ACAAAATTTACAAAATGTACATATTGTAGATATTGT [XGTACX_site7618]” was 6.99.
The value for “TTAATTAAATATTATACACACAAAAAAATAACTTTA [CACACA_site6197]” was 6.9.
The value for “TGTATTTAAAATGGTTGTACATAAATAAAAATAAAA [XGTACX_site7771]” was 7.22; that for “TATTGAAACGTATAGACACACATATGATATATATAT [CACACA_site3226]” was 8.62; that for “ATTTATTTATTTATATGTACTTATATATGTATTTTC [XGTACX_site6269]” was 7.01.
Turning to “AAAGTGTTAACCTAATCTTTAGTTTTTAAACAATAT [CACACA_negctrl_site841]”, the “gcPBM binding intensity (ln)” value was 6.76.
Under “ATAATATTTTGAAACGGTACACTTTTAAAATACACT [XGTACX_site4423]” stands 7; under “AAAATAAGGAAAAAAAAAAAAAAAAAAAAAAAAAAG [CACACA_negctrl_site1291]”, 7.14; under “AAAAAAAAAAAACATACACACAAATATGTACATACA [CACACA_site7807]”, 7.12.
With “TATATATTAATATATGCATGTACGATTATTATAATA [TGCATGCA_site446]”, the “gcPBM binding intensity (ln)” value worked out at 7.23.
For the sequence “AATAAAAATCCACAAGCACACAAATGTACTTATATA [CACACA_site8783]”, the “gcPBM binding intensity (ln)” value was 6.92.
Under “TAAATACAAAAATGTACACACATATAAATATTTTTA [CACACA_site7612]” stands 7.
Under “AACACTACATAAAACTGTACAATAGTATTTTATTAT [XGTACX_site996]” stands 6.83.
Consider “ACAAGATGATGGAAATGTACATAAAAAGAATCATAT [XGTACX_site8682]”, for which the “gcPBM binding intensity (ln)” value is 7.08.
As for “TTTTTTTTTATATTTAGTACATATATATTATTATAT [XGTACX_site3334]”, the “gcPBM binding intensity (ln)” value worked out at 6.97.
For the sequence “CTTAGTGTATTTGAATGTACGCATAAATATAATTAT [XGTACX_site2830]”, the “gcPBM binding intensity (ln)” value worked out at 7.42.
The value for “ATTATTAAAATGATATGTACGCACATAATATACATA [XGTACX_site3236]” was 7.06; that for “TTTCAAAAGTAATACTGTACTTATTTTTATGATTTA [XGTACX_site4184]” was 6.99; that for “TTATACATAAATTTTGTACACACAAAAAAAAAAAAG [CACACA_site8374]” was 7.29.
For “GAATTTTTTTAATGTTGTACTTTTTTTTTTTTTTCT [XGTACX_site648]”, the “gcPBM binding intensity (ln)” value is 6.87.
Under “ACATATATATATATATATATATATATATTACATTTA [CACACA_negctrl_site627]” stands 7.93; under “ACATATTTTATTTTTTGTACACATATATTATTTTTT [XGTACX_site6528]”, 7.28; under “TTTTTGTTAAACAGGGTGCTAATCTGAATTAATATT [GTGCAC_site9908]”, 9.2.
With “TTTGGTTATATTTAAAAAAGACTAATGAAAATTAAA [XGTACX_negctrl_site526]”, the “gcPBM binding intensity (ln)” value was 6.77.
Consider “AAAAAAAAAAAAAATACACACATAAAATAAATAACA [CACACA_site439]”, for which the “gcPBM binding intensity (ln)” value turned out to be 7.23.
The value for “AATTTACAAATATAATGTACATAATTATATATATAT [XGTACX_site278]” was 8.79; that for “ATATATATATATTACACACACACAAAAAAAATAAAG [CACACA_site118]” was 8.64; that for “CATACCATACATAAAACACACAAAATTTACAGAATA [CACACA_site7451]” was 7.05.
The value for “AATAGTAAAAATCACTGTACGTTTATTTTTAAAATG [XGTACX_site1035]” was 6.83.
The value for “CCATATACAACCATACGTACATATATATATATATAT [XGTACX_site8193]” was 9.8.
“ATATTATTTATAGGGTGTACCTTATTATTATAAGAA [XGTACX_site7148]”: the “gcPBM binding intensity (ln)” value is 6.96.
Under “TAGAAAAACATTACGTGTACCAAACATCCTAGCAAC [XGTACX_site4888]” stands 7.19; under “TATAATATTATACATAGTACACATCACACATCGCAA [XGTACX_site4650]”, 7.13; under “TATATACTTTTATGTACACACCTATAATATGGGTGA [CACACA_site5044]”, 7.05.
For “ATATCTTATGTTATCACACACACACGCACAAAACAG [CACACA_site6800]”, the “gcPBM binding intensity (ln)” value was 8.31.
As to “ATTTTTTTTATTTTTTATATAATTTTTTTATATTAT [CACACA_negctrl_site1521]”, the “gcPBM binding intensity (ln)” value worked out at 6.92.
Under “TGTATTTATAAACATGCACACGTGGTTGTATTTATA [CACACA_site5762]” stands 7.91; under “ATTTGTTTACCTAAAAGTACAAATTTTTTATGTATA [XGTACX_site7689]”, 6.93; under “TATCCCTTAGAATACACACCCATATGAGTGTGAACT [CACACA_site7398]”, 7.
On to “TGTTTTGTTTTTTGGGGTACATGTTTTGTATTATAT [XGTACX_site7997]”, for which the “gcPBM binding intensity (ln)” value is 7.55.
For “AAGGCAAGCACTTAAACATGCATATAATAATATCAT [TGCATGCA_site698]”, the “gcPBM binding intensity (ln)” value was determined as 7.36.
On to “ATAATATATATATATGCATGTACATATTTATCTTTA [TGCATGCA_site32]”, for which the “gcPBM binding intensity (ln)” value stood at 7.05.
Turning to “ATGTATTAAAAAAATTGTACTATAAAATGTAACCGC [XGTACX_site8083]”, the “gcPBM binding intensity (ln)” value is 7.12.
As to “AAAAAAAAAAAAAACATACACACAAATATATACATA [CACACA_site4010]”, the “gcPBM binding intensity (ln)” value stood at 7.19.
Consider “ATATATATATATATATGTACATATATATATGTATAT [XGTACX_site3959]”, for which the “gcPBM binding intensity (ln)” value was determined as 9.72.
The value for “ATATTATTTTAAAGTACACACATATATTAATATATA [CACACA_site2315]” was 7.38; that for “TATACATACAGACCCACACACAAAAAAAAAAAAAAA [CACACA_site6536]” was 7.08.
The value for “TAATAATAATTATATACACACATGTATATTATATTT [CACACA_site1501]” was 6.92; that for “ATTTAAATATATTATTGTACATATACCTAATAAGAA [XGTACX_site6655]” was 7.26.
As for “ACTCCTATATAAATGAACCATATTCATAATATATAT [CACACA_negctrl_site1636]”, the “gcPBM binding intensity (ln)” value is 7.08.
As to “AAATGAAAGAATTAAAGTACATTTATATAATTTTAA [XGTACX_site3540]”, the “gcPBM binding intensity (ln)” value came out at 6.59.
Under “AAGAGAAAAACATACACACACAACAAAATATGTATA [CACACA_site2719]” stands 6.96.
As to “TGTATAATATATATATGTACTTATGTATAATATTAT [XGTACX_site4328]”, the “gcPBM binding intensity (ln)” value was found to be 7.08.
The value for “AAGATATCTAAGGAAATTAAACTACCAAAATATATA [TGCATGCA_negctrl_site338]” was 6.8.
Under “TGCATAAAAGTAAAAACATGCATGCCGTGGTATCTT [TGCATGCA_site664]” stands 6.73.
With “GACATATAAATATACACACATACGTAAGTATATTAA [CACACA_site1790]”, the “gcPBM binding intensity (ln)” value came to 6.91.
Under “TTTTTATGGATATTTATATTATATTATGATTAAAAA [TGCATGCA_negctrl_site204]” stands 6.83; under “AATAATACAAAAGTTCAACAAAAAAAAAAAAAAAAT [CACACA_negctrl_site952]”, 6.8.
Under “CTTTATAATATTTGTTGTACACAAATATAACATATT [XGTACX_site709]” stands 7.36; under “AATATATTTATAAGCACACACTAATAAACACAGACA [CACACA_site4377]”, 7.09.
Take “AAATATATATATATATATATATATGTGTGTGTATAT [GTGCAC_negctrl_site1]”: the “gcPBM binding intensity (ln)” value worked out at 7.94.
The value for “GTACATAATTATTATGCACACATATTTTTATGTATT [CACACA_site8132]” was 7.24; that for “ATAGTATCTGGTAGCTGTACGAGTCGTAGAGAGTAG [XGTACX_site2546]” was 7.55.
For the sequence “TTATTATTTCTTAGTAGTACTATATAATTTTTTTTT [XGTACX_site1847]”, the “gcPBM binding intensity (ln)” value was 6.73.
The value for “ATATATCTGTATGGCACACACGGATAAATATATATA [CACACA_site4668]” was 7.26; that for “TGTATTTAGAAACATACACACATATTAAGTTTACAT [CACACA_site5689]” was 6.97; that for “TATATTTGTACATGATATTTTTTTTTTCTTTTAAAA [CACACA_negctrl_site754]” was 6.74.
Under “GGAAAATTATCAATAGCATGCAAAATGTGAATATTA [TGCATGCA_site901]” stands 6.83.
As to “TTTCCTCATTTTATCATACACACTTATTTATATGTG [CACACA_site900]”, the “gcPBM binding intensity (ln)” value was found to be 6.91.
Take “GCCAAAATATAATTTACACACTTATTAAATAATTAT [CACACA_site236]”: the “gcPBM binding intensity (ln)” value amounted to 7.03.
The value for “AGAATAATACAAAAATGTACATTAATAAAAAGATAG [XGTACX_site780]” was 7.21.
Under ATTGAATATGGATATGTGCACATATGTATATAAGTA stands 8.97.
Under “AAAACATTGTTGAACTGTTTTATTTATAAATATAAG [XGTACX_negctrl_site393]” stands 7.02; under “ATATATATACTGTGTACACACATATGTATTTATATA [CACACA_site4600]”, 7.69.
Take “TAATAACTACAAAAAAAAAAGAAAAATAGAAAAAGG [CACACA_negctrl_site1102]”: the “gcPBM binding intensity (ln)” value worked out at 6.82.
Under “TCGTGTTAAACTTTTACACACAAACTTGCAATAATT [CACACA_site7745]” stands 7.02.
Regarding “TGCTTTATTATTTATTGTACATGTAAAATGAGAGAG [XGTACX_site2288]”, the “gcPBM binding intensity (ln)” value came to 7.58.
Turning to “TTTGTTTAAATTAAATGTACATAAAGAATAATATAT [XGTACX_site5093]”, the “gcPBM binding intensity (ln)” value was found to be 7.42.
In the case of “AATTATATGAAATAAACACACATATGTAATATTACA [CACACA_site1928]”, the “gcPBM binding intensity (ln)” value turned out to be 6.76.
“TTTCTTAAAATGTTATGTACATATTTCGTTTCAAAG [XGTACX_site6102]”: the “gcPBM binding intensity (ln)” value came out at 7.28.
Under “TCTTTTTAATTTATATGTACTTATATTAATTATAAG [XGTACX_site7524]” stands 7.15.
“TGAGCTTCAACAATATGTACATAAAATATATTACAT [XGTACX_site4763]”: the “gcPBM binding intensity (ln)” value was 7.09.
As to “TTAATAAAAGCCCATGCACACCTTAGAAAGTTTTAT [CACACA_site8003]”, the “gcPBM binding intensity (ln)” value worked out at 7.37.
